The text below walks through data of the supplement of paper PMC4604168 (melanoma cell lines).

Each structure is given as a SMILES string. This is one part of the list. Many values rest on one well or one pass, so single values are uncertain.
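Further: cell number obtained by counting DAPI-stained nuclei in high-throughput microscope images with image analysis software, screen run in 1,536-well plates.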

The subject of the assay is RPMI7951. In words: cell count relative to DMSO control; melanoma cells; higher = more viable cells. The note with it: library dose: low library concentration; 72 h.
In turn, `O=C(O)[C@@H]1[O][Sb](=[O])([O][Sb]2(=[O])[O][C@H]([C@H](O)CO)[C@H](O)[C@H](C(=O)O)[O]2)[O][C@H]([C@H](O)CO)[C@@H]1O` (stereo partly drawn) [stibogluconate] + Cn1nnc2c(C(N)=O)ncn2c1=O [temozolomide] (first compound 2 µM, partner dose 2 µM) showed a cell count of 85.5%.
The compound `O=C(O)[C@@H]1[O][Sb](=[O])([O][Sb]2(=[O])[O][C@H]([C@H](O)CO)[C@H](O)[C@H](C(=O)O)[O]2)[O][C@H]([C@H](O)CO)[C@@H]1O` (stereo partly drawn) [stibogluconate] + CC(C)(C)c1cnc(CSc2cnc(NC(=O)C3CCNCC3)s2)o1 [SNS-032] (first compound 2 µM, partner dose 0.01 µM) yielded a cell count of 98.7%.
`O=C(O)c1ccc2c(c1)nc(Nc1cccc(Cl)c1)c1ccncc12` + CO[C@@H]1[C@H](N(C)C(=O)c2ccccc2)C[C@H]2O[C@]1(C)n1c3ccccc3c3c4c(c5c6ccccc6n2c5c31)C(=O)NC4 [Midostaurin] (first compound 0.4 µM, partner dose 0.08 µM) came in with a cell count of 94.5%.
Compound `O=C(O)[C@@H]1[O][Sb](=[O])([O][Sb]2(=[O])[O][C@H]([C@H](O)CO)[C@H](O)[C@H](C(=O)O)[O]2)[O][C@H]([C@H](O)CO)[C@@H]1O` (stereo partly drawn) [stibogluconate] + COCC[n+]1c2c(n(Cc3cnccn3)c1C)C(=O)c1ccccc1C2=O [YM155] (first compound 2 µM, partner dose 0.0004 µM) registered a cell count of 105%.
Then `O=C(Nc1cc(C(F)(F)F)cc(C(F)(F)F)c1)c1cc(Cl)ccc1O` + NC1(c2ccc(-c3nc4ccn5c(=O)[nH]nc5c4cc3-c3ccccc3)cc2)CCC1 [MK2206] (first compound 0.016 µM, partner dose 0.4 µM), with 91.1%; and `O=C(Nc1cc(C(F)(F)F)cc(C(F)(F)F)c1)c1cc(Cl)ccc1O` + O=c1[nH]nc(Sc2ncc([N+](=O)[O-])s2)n1-c1ccc2c(c1)OCCO2 [BI78D3] (first compound 0.016 µM, partner dose 0.2 µM), with 85.4%; and `O=C(O)[C@@H]1[O][Sb](=[O])([O][Sb]2(=[O])[O][C@H]([C@H](O)CO)[C@H](O)[C@H](C(=O)O)[O]2)[O][C@H]([C@H](O)CO)[C@@H]1O` (stereo partly drawn) [stibogluconate] + Nc1cccc2c1CN(C1CCC(=O)NC1=O)C2=O [lenalidomide] (first compound 2 µM, partner dose 1 µM), with 89.7%.
`Cn1nnc2c(C(N)=O)ncn2c1=O` [temozolomide] + CN(NC(=O)CC(=O)NN(C)C(=S)c1ccccc1)C(=S)c1ccccc1 [STA4783] (first compound 2 µM, partner dose 0.006 µM) yielded a cell count of 87.4%.
